Results on four variants are retold here after the GPR68 mutational scans of Howard et al. (2025).

Scores with a large standard error are left out. Not listed are two conditions whose scores span a narrow range. Names with del lack the residues named; names with ins carry added residues between the positions named. For some assays here: The data file names ogerin without a concentration.

B1: GPR68, Q15743 (parent)
chain: MGNITADNSSMSCTIDHTIHQTLAPVVYVTVLVVGFPANCLSLYFGYLQIKARNELGVYLCNLTVADLFYICSLPFWLQYVLQHDNWSHGDLSCQVCGILLYENIYISVGFLCCISVDRYLAVAHPFRFHQFRTLKAAVGVSVVIWAKELLTSIYFLMHEEVIEDENQHRVCFEHYPIQAWQRAINYYRFLVGFLFPICLLLASYQGILRAVRRSHGTQKSRKDQIQRLVLSTVVIFLACFLPYHVLLLVRSVWEASCDFAKGVFNAYHFSLLLTSFNCVADPVLYCFVSETTHRDLARLRGACLAFLTCSRTGRAREAYPLGAPEASGKSGAQGEEPELLTKLHPAFQTPNSPGSGGFPTGRLA

Variants of B1 are the subject of series [1]. Put plainly: cAMP reporter score (Enrich2 score, wild type = 0); higher = more signal; HEK293T, FACS bins.
In series [2] the parent is B1. The series can be described thus: surface expression score (Enrich2 score, wild type = 0); higher = more signal; HEK293T, FACS bins.

For MGNITADNSSMSCTIDHTIHQTLAPVVYVTVLVVGFPANCLSLYFGYLQIKARNELGVYLCNLTVADLFYICSLPFWLQYVLQHDNWSHGDLSCQVCGILLYENIYISVGFLCCISVDRYLAVAHPFRFHQFRTLKAAVGVSVVIWAKELLTSIYFLMHEEVIEDENQHRVCFEHYPIQAWQRAFNYYRFLVGFLFPICLLLASYQGILRAVRRSHGTQKSRKDQIQRLVLSTVVIFLACFLPYHVLLLVRSVWEASCDFAKGVFNAYHFSLLLTSFNCVADPVLYCFVSETTHRDLARLRGACLAFLTCSRTGRAREAYPLGAPEASGKSGAQGEEPELLTKLHPAFQTPNSPGSGGFPTGRLA [I185F], the cAMP reporter score is -1.06 in series [1] (pH 5.5); -0.328 in series [1] (pH 6); -1.6 in series [1] (pH 6, modulator: ogerin); -1.25 in series [1] (pH 6.5, modulator: ogerin). The surface expression score in series [2] was found to be 1.02.
With MGNITADNSSMSCTIDHTIHQTLAPVVYVTVLVVGFPANCLSLYFGYLQIKARNELGVYLCNLTVADLFYICSLPFWLQYVLQHDNWSHGDLSCQVCGILLYENIYISVGFLCCISVDRYLAVAHPFRFHQFRTLKAAVGVSVVIWAKELLTSIYFLMHEEVIEDENQHRVCFEHYPIQAWQRAGNYYRFLVGFLFPICLLLASYQGILRAVRRSHGTQKSRKDQIQRLVLSTVVIFLACFLPYHVLLLVRSVWEASCDFAKGVFNAYHFSLLLTSFNCVADPVLYCFVSETTHRDLARLRGACLAFLTCSRTGRAREAYPLGAPEASGKSGAQGEEPELLTKLHPAFQTPNSPGSGGFPTGRLA [I185G], the cAMP reporter score was -0.736 in series [1] (pH 5.5); -1.61 in series [1] (pH 6); -0.286 in series [1] (pH 6, modulator: ogerin); 0.215 in series [1] (pH 6.5, modulator: ogerin). Also, in series [2], the surface expression score was -0.824.
The like results for MGNITADNSSMSCTIDHTIHQTLAPVVYVTVLVVGFPANCLSLYFGYLQIKARNELGVYLCNLTVADLFYICSLPFWLQYVLQHDNWSHGDLSCQVCGILLYENIYISVGFLCCISVDRYLAVAHPFRFHQFRTLKAAVGVSVVIWAKELLTSIYFLMHEEVIEDENQHRVCFEHYPIQAWQRAKNYYRFLVGFLFPICLLLASYQGILRAVRRSHGTQKSRKDQIQRLVLSTVVIFLACFLPYHVLLLVRSVWEASCDFAKGVFNAYHFSLLLTSFNCVADPVLYCFVSETTHRDLARLRGACLAFLTCSRTGRAREAYPLGAPEASGKSGAQGEEPELLTKLHPAFQTPNSPGSGGFPTGRLA [I185K] were, in that order, -1.73, -1.22, -1.82, -1.4 and 0.162.
As to MGNITADNSSMSCTIDHTIHQTLAPVVYVTVLVVGFPANCLSLYFGYLQIKARNELGVYLCNLTVADLFYICSLPFWLQYVLQHDNWSHGDLSCQVCGILLYENIYISVGFLCCISVDRYLAVAHPFRFHQFRTLKAAVGVSVVIWAKELLTSIYFLMHEEVIEDENQHRVCFEHYPIQAWQRALNYYRFLVGFLFPICLLLASYQGILRAVRRSHGTQKSRKDQIQRLVLSTVVIFLACFLPYHVLLLVRSVWEASCDFAKGVFNAYHFSLLLTSFNCVADPVLYCFVSETTHRDLARLRGACLAFLTCSRTGRAREAYPLGAPEASGKSGAQGEEPELLTKLHPAFQTPNSPGSGGFPTGRLA [I185L], the cAMP reporter score in series [1] (pH 5.5) was 0.925; in series [1] (pH 6), 0.192; in series [1] (pH 6, modulator: ogerin) it was -0.18; in series [1] (pH 6.5, modulator: ogerin) it was -0.343. In series [2], the surface expression score came to 1.23.
